Data: the supplement of paper PMC11417369
± gives the standard deviation of the averaged measurements. The list shows a part of the results.

Test system: PfAP2-G AP2 domain (GST-tagged)
Assay: gcPBM binding intensity (ln(normalized median fluorescence intensity)); higher = stronger DNA binding
Procedure, shortened: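 The highest Masliner-normalised natural-log median intensity across replicate spots of either probe orientation is reported as binding intensity. GST-tagged P. falciparum DNA-binding domains expressed in E. coli were applied for 1 h to an Agilent 4 × 180k array of primer-extended double-stranded 36-bp intergenic genomic probes plus negative controls, and bound protein was detected with Alexa488 anti-GST antibody and scanned at 488 nm.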

Sequence	gcPBM binding intensity (ln)
AGATACTTTTTTAAAAGTACAAAAACTTTCGATATA [XGTACX_site959]	11.3 ± 0.69
TTGCTTATATTTCTAAAATGTAAAAGACACAAAGGT [XGTACX_negctrl_site225]	10.5 ± 0.67
ATAAAAATATAAACATGTACATAAAAATCTATATAT [XGTACX_site405]	11.3 ± 0.67
AAAAAAAAAAAAAACACACACACACCCAAATATATA [CACACA_site1169]	10.2 ± 0.26
ATATATTTATTTATATGTACATAATATTTTTCTCAG [XGTACX_site800]	11.2 ± 0.56
TTTTTTATTACTTTGTGTACTTACACAGAACCTTAT [XGTACX_site6038]	11.5 ± 0.88
AAAAATGCAATTTAATGTACACATAAGATGTTATTT [XGTACX_site6853]	11.2 ± 0.79
TTCTAATATATGCATACACACAAATGTGAATATACA [CACACA_site2142]	10 ± 0.3
ATTAAATCTATATATACACACATGTTTGGTATATTC [CACACA_site2657]	9.9 ± 0.014
TTTGTAATAAACTACTTTTTTTTTTTTTTTTTTTTT [CACACA_negctrl_site571]	10.9 ± 0.35
TTTATATTACAATAATATATTAAAAAATAAAATATA [TGCATGCA_negctrl_site18]	9.47 ± 0.028
AAAAAAAATAGACACACACACATACACATAAATATA [CACACA_site7742]	10.2 ± 0.33
AGGGTTACAAGAGGAACACACAAAAAAATAAATAAA [CACACA_site1436]	10.2 ± 0.22
ATGTAGCCTTACGCTTGTACGAATATCTTAATTTTT [XGTACX_site4331]	10.8 ± 0.34
CGATTACTAATTTTTAGTACATATAATCAATATGTA [XGTACX_site7857]	11.1 ± 0.88
ATCTATTTCTATTGTTGTACTTATTTTTCATTGTTT [XGTACX_site6942]	11.6 ± 1
ATATATTTTATTACCAGTACATATATTAAAATAATA [XGTACX_site8440]	11 ± 0.69
TTCATATAAATACATGCACACAAAAATATCAATACA [CACACA_site8753]	10.2 ± 0.25
TATAATATAATATATATATATATATATATATAAGAA [CACACA_negctrl_site78]	9.57 ± 0.042
TATACAATATAAAATACACACGCACCCAAAAAAAAA [CACACA_site9174]	10.6 ± 0.4
ATTTTTTTATTTGATTGTACAATTTTCTTTCAAAAT [XGTACX_site2902]	11 ± 0.47
ATATAATGTGTAGGCCGTATTTACGTTTGGCAATCA [CACACA_negctrl_site1130]	10.3 ± 0.17

Sequence	gcPBM binding intensity (ln)
AGAGTATATATATATGCATGCATATCTCATATTTAT [TGCATGCA_site509]	9.71 ± 0.13
TAATGATAAATACATACACACAAAAAATAATATATA [CACACA_site2576]	9.91 ± 0.13
TGTTATTATTTGTACACACACATATAGATCCTTGTT [CACACA_site7667]	11.3 ± 0.83
TATTATAAAGAAATTACACACATGCAATGAAAAAAA [CACACA_site1697]	9.92 ± 0.028
TCGTTTCCTTAAAATTGTACTTTTTTTTTTTTTTTT [XGTACX_site64]	11.6 ± 0.99
ATTAAAGAGATATATACACACATTATGGGGGAATAA [CACACA_site6226]	10.8 ± 0.49
CCTAAATATTTTTTATGTACATATTTATCTAAATTT [XGTACX_site6835]	11.3 ± 0.76
TGAGGAAACATGAGATGTACATATAAATTTTTTTTT [XGTACX_site2595]	11.1 ± 0.71
ATAGAAATTATAAATAGTACATAATAAAAATGAGCA [XGTACX_site822]	11.1 ± 0.8
TAAGAAATAAATAGTACACACATAGACACCCACCCA [CACACA_site8429]	11.7 ± 0.8
AAACAAAATGGTAACACACACATATATAAATATGTA [CACACA_site6994]	10.2 ± 0.35
AACGAGCAAGACGGGGTGCACACAAACTAATATGCC [GTGCAC_site9436]	10.7 ± 0.59
ATAATATAAACATATTGTACACATATATTGCTATTT [XGTACX_site2799]	11.3 ± 0.76
AAAAAAAAATATATATATATATATATAAATAAATTT [CACACA_negctrl_site519]	9.315 ± 0.007
AAATATAAAAAAAATATATAATTTTTACATCGAATT [CACACA_negctrl_site544]	9.48 ± 0.38
TAATAAAAGATATATACACACAAATAAATAAATAAA [CACACA_site7818]	9.75 ± 0.014
AAGAAAATAGGGTTCATAGGATTATACTTTTGGAAT [TGCATGCA_negctrl_site80]	10.1
TTCTATGAATTCATAGTGCAAATGAGTTATTTTTTC [GTGCAC_site9709]	9.8 ± 0.085
TTATTATTGTTATGTTGTACTTTTACAAACTTTTTG [XGTACX_site8797]	11.4 ± 0.74
ATATATTTATTAAGGTGTACAAAAATTATGTTGCAT [XGTACX_site7546]	11.4 ± 0.91
TATTTTATCTAAGGATGTACATTATTAAGAAAATGT [XGTACX_site6123]	11 ± 0.63
TAGAAATATAATTAATGTACATATGATATTATATAT [XGTACX_site923]	11 ± 0.6

Sequence	gcPBM binding intensity (ln)
ATTTATTTATATAGAAGTACATATTTATTTATATAT [XGTACX_site6283]	11.2 ± 0.85
CTTTTTTAAATTATTGCACACAAAAATGAAAGGAAA [CACACA_site8412]	10.3 ± 0.3
ACATCAAGCAGACACACACACACACCCACCCACCGA [CACACA_site371]	10.4 ± 0.37
TTTTTAAATATATAATAGAATTGATTGTATTATATA [CACACA_negctrl_site196]	9.61 ± 0.29
TATAGATTCTTTTAATGTACATGTCTTTTCATTTCC [XGTACX_site8348]	11 ± 0.56
ATATATATATATACAACACACATGTAATATATAAAT [CACACA_site3294]	10.1 ± 0.4
TACTGATCCACATTTATACACACCTCGGTTTGTAGA [CACACA_site417]	10.3 ± 0.25
TTGTGTTCTTATTTTTACACCGAAAAATATTAAAAG [CACACA_negctrl_site535]	10.4 ± 0.42
CCTTTATACATTTTCTGTACTGATATATATTAAAAA [XGTACX_site8467]	11.2 ± 0.67
GTATGAAAAAAAATATGTACACATATATATTTGGTA [XGTACX_site6309]	11.4 ± 0.83
TTGGTTTGAAAGAAAGAAATTATTAAAAAGGAAATA [CACACA_negctrl_site26]	9.86 ± 0.11
GATATACTGTCAATTCTACACACCATAGGGGGAGCA [CACACA_site8562]	11.1 ± 0.69
ATATAAAAAAAAAAAAAAAAATATATATATATATAT [GTGCAC_negctrl_site251]	9.94 ± 0.83
TAAAAAAAATAGCATACACACATATATACCTATATA [CACACA_site4535]	9.73 ± 0.16
CTTTTTATTAAATATGCATGTGTATCAACAGTGAAT [TGCATGCA_site447]	10.3 ± 0.16
GTTATACGCATATATACACACATATGTAAATATATA [CACACA_site3280]	10.2 ± 0.23
ATGAGTGCACAAATATATATATATATATATATATAT [CACACA_negctrl_site404]	10.3 ± 0.54
ATCATAACACCTCCACACAAATAAATATAACATATA [XGTACX_negctrl_site269]	10.1 ± 0.42
CATACACCCGGACACACACACACACCCATATATAAT [CACACA_site4494]	11 ± 0.64
TTGTTTTTTTCTTTTTGTACATATACAACATACATA [XGTACX_site8996]	11.1 ± 0.79
TATTAAATATAAGTCACACATAATTTTTCGTCCTTT [CACACA_site5065]	10.06 ± 0.057
AAACAATTTATGTGTAGTACATGTTGGAGATAATTT [XGTACX_site6000]	11.4 ± 0.88

Sequence	gcPBM binding intensity (ln)
GAAAATATATTATTTACACACATGTTCAAATTAAAA [CACACA_site3761]	9.97 ± 0.16
AAGAAAATATAACAAAGTAAAAACATATTATATATA [TGCATGCA_negctrl_site248]	9.76 ± 0.18
TATATATATTTTTGAAGTACTTATTACACTAGCATT [XGTACX_site8965]	11.2 ± 0.61
AGGATAACATACAAAAGTACATAAAACTAAAAAAAC [XGTACX_site26]	11.4 ± 0.72
ATATATATATATATATGTACATATATTTTCTTTTTG [XGTACX_site6017]	11.1 ± 0.73
TTGTTCTATAATTATACATGCATTAACAGAGTAAAA [TGCATGCA_site909]	10.1 ± 0.2
AAAAACGATTAATGTGTACACACATAGTTATAAACA [CACACA_site8659]	11.7 ± 1.2
TTTTTTTTTTTTTAATGTACAAATATGGTGACAAAA [XGTACX_site8709]	11 ± 0.76
TGGGAATAACGACACACACACACACGGATATAAATA [CACACA_site7633]	10.235 ± 0.007
CTTTTCATCTTCTTAACACACAAAAAAAAAAAAAAA [CACACA_site3886]	9.99 ± 0.54
TATATTTTGTTTTTGTGTACATATTGGTAGTTATTT [XGTACX_site7659]	11.5 ± 0.86
TGATTATCCTATATATATTTCATAATGGAAAAAAAT [TGCATGCA_negctrl_site444]	9.89 ± 0.35
AATGTGGTATTTACAAAAAGGCTTTATACTTAAAAA [XGTACX_negctrl_site566]	10.3 ± 0.29
AAAAATAGTCTTCTTGCACTTTTTAATTTATTTTAA [CACACA_negctrl_site1322]	10.1 ± 0.19
CTATTATATCAGTAGACACACATATAACATTTATAT [CACACA_site141]	10.1 ± 0.12
AAAATTCAGCGAAAGGGTACATATGTGTAAGGGTAA [XGTACX_site8205]	11.1 ± 0.54
TATATTTATATACCAACACACATACATATTTATATA [CACACA_site6931]	10.14 ± 0.085
ATGGATTTTACCATAGCACACATATATGAATATTTT [CACACA_site8535]	10.02 ± 0.035
ATATAGAAAATGCATACACACTTTATATATATATTT [CACACA_site4658]	9.8 ± 0.085
TAATTATTTCGTATATTTGAATGGTACATGCTTATA [CACACA_negctrl_site1178]	10.7 ± 0.6
ATCTTATATTATCACACACACACGCACAAAACAGAA [CACACA_site1463]	10.4 ± 0.45
